According to PubChem BioAssay AID624417 (National Center for Advancing Translational Sciences (NCATS), 2012):
In all, about 410,000 compounds went through this assay and about 6,400 (1.6%) were called active. The shares of active, inactive and inconclusive entries below differ from those in the screen. Calls follow the shape of the dose curve; as a rule, active = well fitted inhibition curve with a large enough effect; inconclusive = small, poorly fitted or top-dose-only effect; inactive = no such curve, though single readings can be large or run the other way. No potency is given beside an inconclusive call; the fits are too rough.

What follows are molecules tested against Glucagon-like peptide 1 receptor (Homo sapiens) (UniProt P43220) (assay: qHTS of GLP-1 Receptor Inverse Agonists (Inhibition Mode)). Conditions: HEK293 GLP-1R CRE-luciferase, luminescence, 24 h, GLP-1R form is constitutively active; activity change, negative = inhibition: at 38.3 µM (top of the series) unless noted.
Procedure, shortened: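 Inverse agonism was detected as reduced cAMP-driven luciferase luminescence after 24 h compound treatment. The cells were HEK293 clones expressing constitutively active human GLP-1R with the reporter. Reporter-only and GPR119 cell lines served as counterscreen controls.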
% is scaled to controls: 0 for no effect and ±100 for the full control effect; potency is read from the fitted curve at half-maximal effect; tags tell the direction and shape of the fitted curve.
Also: nearly all actives have a fitted effect of over 55% in size.

UniProt P43220, sequence (P43220 whole entry, looked up): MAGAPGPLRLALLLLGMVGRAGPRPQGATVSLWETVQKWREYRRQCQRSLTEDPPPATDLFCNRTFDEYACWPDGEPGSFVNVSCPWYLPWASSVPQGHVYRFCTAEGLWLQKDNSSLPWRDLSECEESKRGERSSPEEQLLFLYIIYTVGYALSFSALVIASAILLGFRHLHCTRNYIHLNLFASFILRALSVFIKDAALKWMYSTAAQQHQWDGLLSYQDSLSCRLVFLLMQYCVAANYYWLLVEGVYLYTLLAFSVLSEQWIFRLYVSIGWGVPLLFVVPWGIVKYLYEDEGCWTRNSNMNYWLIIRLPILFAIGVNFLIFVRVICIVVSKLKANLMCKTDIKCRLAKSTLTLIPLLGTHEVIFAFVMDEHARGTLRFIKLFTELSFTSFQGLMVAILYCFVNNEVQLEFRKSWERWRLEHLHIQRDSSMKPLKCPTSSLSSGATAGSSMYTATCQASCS

Structure (SMILES) | Potency | activity change, negative = inhibition
CCC(C)(C)n1nnnc1C(c1cccnc1)N1CCN(c2cccc(C(F)(F)F)c2)CC1 (configuration not stated) | inconclusive [inhibitor, single point] | –
Cc1ccc(N(CC(=O)NCCc2ccc(F)cc2)S(=O)(=O)c2ccc(Cl)c([N+](=O)[O-])c2)c(C)c1 | inconclusive [inhibitor, partial curve, poor fit] | –
COc1ccc(C2CC(c3cccs3)=NN2C(=O)CSc2nc3ccccc3s2)cc1 (configuration not stated) | inconclusive [inhibitor, full curve, poor fit] | –
CCOC(=O)C(CCCCCOc1ccccc1[N+](=O)[O-])C(=O)OCC | inconclusive [inhibitor, single point] | –
CC(C)NC(=S)NN=C1CCC(c2ccccc2)CC1 (configuration not stated) | inconclusive [inhibitor, single point] | –
Cc1ccc(NC(=O)CN2CCCC2c2cccn2C)cc1C (configuration not stated) | inconclusive [inhibitor, single point] | –
COC(=O)c1cc(NC(=O)Nc2cccc(Cl)c2)ccc1Cl | inconclusive [inhibitor, partial curve, poor fit] | –
O=C(CSc1nnc(CNc2cccc(C(F)(F)F)c2)n1Cc1ccco1)NCc1ccco1 | inconclusive [inhibitor, partial curve, poor fit] | –
O=C(NCCc1ccccc1)C(c1ccncc1)N(C(=O)c1csnn1)C1CC1 (configuration not stated) | – | inactive: 3.44%
Cc1cccc(C)c1NC(=O)C(CCc1ccccc1)n1c(=O)c(-c2cc3ccccc3[nH]2)nc2ccccc21 (configuration not stated) | inconclusive [inhibitor, single point] | –
CCC(C)Sc1ccc([C@H]2N[C@@](Cc3ccccc3)(C(=O)OC)[C@H]3C(=O)N(CC)C(=O)[C@@H]23)cc1OC (some centres not stated) | inconclusive [inhibitor, partial curve, poor fit] | –
Cc1ccnc(NC(=S)NC(=O)/C=C/c2ccco2)c1 | inconclusive [inhibitor, single point] | –
O=C(NCc1ccc(Cl)cc1)c1ccccc1Oc1ccccc1 | active: 2.82 µM | –
COc1ccc(C2CC(c3ccc(Cl)cc3)=NN2C(=O)c2cccc([N+](=O)[O-])c2)cc1 (configuration not stated) | inconclusive [inhibitor, partial curve, poor fit] | –
Cc1ccc(OC(=O)C2c3ccccc3Oc3ccccc32)cc1C | inconclusive [inhibitor, single point] | –
O=S(=O)(NCCc1csc(-c2ccc(F)cc2)n1)c1ccc(F)cc1F | inconclusive [inhibitor, partial curve, poor fit] | –
COC(=O)N/N=C/c1cccc(OCCSc2ccc(Cl)cc2)c1 | inconclusive [inhibitor, partial curve, poor fit] | –
Clc1ccc(Sc2cnc3ccccc3n2)cc1 | inconclusive [inhibitor, single point] | –
Cc1ccccc1-c1cc2c(c3c1ccn3C)C1CCC2C1 (configuration not stated) | inconclusive [inhibitor, single point] | –
COc1cccc(NC(=S)NN2CCN(C)CC2)c1 | inconclusive [inhibitor, full curve] | –
CC(C)CC(=NNC(=O)c1ccncc1)c1cc(Cl)ccc1O | inconclusive [inhibitor, full curve, poor fit] | –

Structure (SMILES) | Potency | activity change, negative = inhibition
S=C(Nc1ccccc1Cl)NC1CC2CCCC(C1)N2C1CC1 (configuration not stated) | inconclusive [inhibitor, partial curve, poor fit] | –
CC(=O)Nc1cccc(-c2cn3ccc(C)cc3n2)c1 | – | inactive: 13.7%
Cc1nc2ccc(NC(=O)c3ccccc3)cc2c(=O)n1Cc1ccc(F)cc1 | inconclusive [inhibitor, partial curve] | –
CCOC(=O)C1(CCCc2ccccc2)CCN(C(=O)C2=C(C)OCCO2)CC1 | inconclusive [inhibitor, partial curve, poor fit] | –
CCOC(=O)C1(C)C=C(Nc2cccc(OC)c2)C(=O)N1c1ccccc1 (configuration not stated) | inconclusive [inhibitor, partial curve, poor fit] | –
COc1ccc(Cl)cc1NC(=O)CSc1nnc(C)n2c1cc1occc12 | – | inactive: 28%
N#C/C(=C\c1ccc(O)c(O)c1)C(=O)Nc1ccccc1 | – | inactive: 9.37%
Cc1ccc(-n2ncc3c(=O)[nH]c(SCC(=O)N4CCCc5ccccc54)nc32)cc1 | – | inactive: 51.3%
N#CC(=Cc1ccccn1)c1nc(-c2ccc(Cl)cc2)cs1 | inconclusive [inhibitor, single point] | –
CN(C)c1ccc(CNC(=O)C2(C)Cc3c(-c4ccc5c(c4)OCO5)ccnc3O2)cc1 (configuration not stated) | inconclusive [inhibitor, full curve, poor fit] | –
Cc1nc(SCC(=O)NC2CCCCC2C)nc(C)c1C (configuration not stated) | – | inactive: -15.9%
Cc1ccc(C(=O)Nc2ccc(C(=O)N/N=C/c3ccccn3)cc2)cc1 | inconclusive [inhibitor, single point] | –
C/C(=N\NC(=S)NC(C)C)c1ccc(C(C)(C)C)cc1 | inconclusive [inhibitor, partial curve, poor fit] | –
Cc1ccc(Cn2c(=O)oc3ccccc32)cc1 | inconclusive [inhibitor, single point] | –
CCN1CCC(O)(/C=C/c2ccc(C(C)C)cc2)C(C(=O)/C=C/c2ccc(C(C)C)cc2)C1 (configuration not stated) | inconclusive [inhibitor, partial curve, poor fit] | –
Cc1cccc(N2CCN(C(=O)CCS(=O)(=O)c3ccc4c(c3)NC(=O)CO4)CC2)c1C | inconclusive [inhibitor, partial curve, poor fit] | –
CCc1noc(C)c1C(=O)N1CCCSC1=Nc1ccccc1OC | inconclusive [inhibitor, partial curve, poor fit] | –
O=C(NCCOc1ccccc1)N1[C@H]2CC[C@@H]1C=C(c1ccc(F)cc1OCc1ccccc1)C2 | inconclusive [inhibitor, partial curve, poor fit] | –
Cc1noc(C)c1C(=O)OC(C)C(=O)c1c[nH]c2ccccc12 (configuration not stated) | – | inactive: -20.3%
COc1cccc(C(O)c2nc(-c3cc(F)cc(F)c3)cs2)c1 (configuration not stated) | inconclusive [inhibitor, partial curve, poor fit] | –
CC(C)CN(C(=O)c1ccco1)c1nc2ccccc2s1 | inconclusive [inhibitor, full curve, poor fit] | –

Structure (SMILES) | Potency | activity change, negative = inhibition
Cc1ccc(NC(=O)C2(NC(=O)c3ccccn3)CCCCC2)cc1Br | inconclusive [inhibitor, partial curve, poor fit] | –
COc1cc(C(=O)N/N=C/c2coc3ccc(Cl)cc3c2=O)ccc1O | inconclusive [inhibitor, full curve] | –
CCCCc1nccn1CCn1ccnc1CCCC | inconclusive [inhibitor, full curve, poor fit] | –
CCN(CC)c1nc2ccccc2nc1C(C#N)C(=O)NCCCOC (configuration not stated) | inconclusive [inhibitor, single point] | –
CCCCNC(=O)c1onc(CSc2ccccn2)c1C(=O)NCCCC | inconclusive [inhibitor, single point] | –
Cc1onc(-c2ccccc2Cl)c1C(=O)Nc1nc2ccc(S(C)(=O)=O)cc2s1 | inconclusive [inhibitor, partial curve] | –
Cc1cc2nn(-c3ccc(F)cc3)nc2cc1NC(=O)c1cc(Cl)ccc1Cl | – | inactive: 26.9%
CCCCN1C(=O)C(O)(c2c(C)[nH]c3ccccc23)c2cc(Br)ccc21 (configuration not stated) | inconclusive [inhibitor, single point] | –
Cc1noc(C)c1COC(=O)c1csc2c1CCC(C)C2 (configuration not stated) | inconclusive [inhibitor, partial curve, poor fit] | –
COc1ccc(-c2noc(CCCCC(=O)N3CCN(c4cc(C)ccc4C)CC3)n2)cc1 | inconclusive [inhibitor, partial curve, poor fit] | –
O=C(Nc1ccc(S(=O)(=O)N2CCCC2)cc1)C1CCCCC1 | inconclusive [inhibitor, single point] | –
COc1ccc([C@H]2CC(=O)C=C(c3cc(OC)ccc3OC)C2)cc1 | inconclusive [inhibitor, partial curve, poor fit] | –
O=C(c1sccc1-c1ccccc1)N1CCN(S(=O)(=O)c2ccccc2F)CC1 | inconclusive [inhibitor, single point] | –
Cc1ccc(NC(=O)CN2CCc3cc4c(cc3C2C)OCCCO4)cc1C (configuration not stated) | inconclusive [inhibitor, partial curve, poor fit] | –
Cc1cccc(OCCCC(=O)NC(C)c2ccccc2)c1 (configuration not stated) | inconclusive [inhibitor, partial curve, poor fit] | –
Cc1ccc(NC(=O)CNc2cccc(C)c2C)c(C)c1 | inconclusive [inhibitor, partial curve, poor fit] | –
CCc1ccc(NC(=O)N(Cc2c[nH]c3ccccc23)C2CCCCCC2)cc1 | – | inactive: -11.1%
CCc1nc(C)cn1S(=O)(=O)c1cc(C)c(OC)cc1C | – | inactive: 6.83%
COc1ccc(CN2CCNC(=O)C2CC(=O)NCCc2c[nH]c3ccccc23)c(OC)c1 (configuration not stated) | – | inactive: 11.1%
Cc1ccc(CSc2nnc(SCC(=O)N/N=C/c3ccccc3OCC(=O)O)s2)cc1 | inconclusive [inhibitor, partial curve] | –
